The source gives no read counts; variants with many changes may rest on few reads.
B1: LINE1-full (parent)
chain: UACGUAGGUGGUUUUCCCCUGAUAGUGCUAAGGGGGCCUGGAAGUUUGGACUGGGCAGAGCUCAACACAGCGUGGCAAAGUGGCUGUGGCUAGACUGCCUCUCUGGAUUCCUCGUCACUCAGCAGGGCAUCUCUGAGAGAAAUGCC

Variants of: B1
Assay: self-cleavage, relative activity (ratio to wild type); higher = more cleavage; in vitro, sequencing; the parent is a self-cleaving ribozyme

Row | Variant | self-cleavage
1 | UACGUAGGUGGUUCUCCCCUGAUAGUGCUAAGGGGGCCUGGAAGUUUGGACUGGGCAGGGCUCGACACAGCGUGGCAAAGUGGCUGUGGCUAGACUGCCUCUCUGGAUUCCUCGUCACUCAGCAGGGCAUCUCUGAGAGAAAUGCC | 0
2 | UACGUAGGUGGUUCUCCCCUGAUAGUGCUAAGGGGGCCUGGAGGUUUGGACUGGGCAGAGCUCAACACAGCGUGGCAAAGUGGCUGUGGCUAGACUGCCUCUCUAGAUUCCUCGACACUCAGCAGGGCAUCUCUGAGAGAAAUGCC | 1.16
3 | UACGUAGGUGGUUCUCCCCUGAUAGUGCUAAGGGGGCCUGGAGGUUUGGACUGGGCAGAGCUCAACACAGCGUGGCAAAGUGGCUGUGGCUAGACUGCCUCUCUGGAUUCCUCGUCACUCAGCAGGGCAUCUCUGAGAGGAAUGCC | 1.9
4 | UACGUAGGUGGUUCUCCCCUGAUAGUGCUAAGGGGGCCUGGAAGUUUGGGCUGGGCAGAGCUCAACACGGCGAGGCAAAGUGACUGUGGCUAGACUGCCUCUCUGGAUUCCUCGUCACUCAGCAGGGCUUCUCUGAGAGAAAUGCC | 0.08
5 | UACGUAGGUGGUUCUCCCCUGAUAGUGCUAAGGGGGCCUGGAAGUUUGGGCUGGGCAGAGCUCAACACAGCGUGGCAAAGUGGCUGUGGCUAGACUGCCUCUCUGGAUUCCUCGUCUCUCAGCAGGGCGUCUCUGAGAGAAAUGCC | 1.45
6 | UACGUAGGUGGUUCUCCCCUGAUAGUGCUAAGGGGGCCUGGAAGUUUGGACUGGGCAGUGCUCGACACAGCGUGGCGAAGUGGCUGUGGCUAGACUGCCUCUCUGGAUUCCUCGUCACUCAGCAGGGCAUCUCAAAGAGAAAUGCC | 0
7 | UACGUAGGUGGUUCUCCCCUGAUAGUGCUAAGGGGGCCUGGAUGUUUGGACUGGGCAGAGCUCAACACAGCGUGGCAAAGUGGCUGUGGCUAGACUGCCUCUCUGGAUUCCUCGUCACCCAGCAGGGCAUCUCUGAGAGAAAUGCC | 0.95
8 | UACGUAGGUGGUUCUCCCCUGAUAGUGCUAAGGGGGCCUGGAAGUUUGGACUGGGCAGAGCUCGACACAGCGUGGCAAAGUGGCUGUAGCUAGACUGCCUCUCUGGAUUCCUCGUCUCUCAGCAGGGCAUCUCUGAGAGAAAUGCC | 0.09
9 | UACGUAGGUGGUUCUCCCCUGAUAGUGCUAAGGGGGCCUGGAAGUUUGGACUGGGCAGAGCUCGACACGGCGUGGCAAAGUGGCUGUGGCUAGACUGCCUCUCUGGAUUCCUCGUCACUCAGCAGGGCAUCUCUGAGAGAAAUGCC | 0
10 | UACGUAGGUGGUUCUCCCCUGAUAGUGCUAAGGGGGCCUGGAGGUUUGGACUGGGCAGAGCUCAACACAGCGCGGCAAAGUGGCUGUGGCUAGACUGCCUCUCUGGAUUCCUCGUCACUCAGCAGGGCAUCUCUGAGAGAAAUGCC | 0.38
11 | UACGUAGGUGGUUCUCCCCUGAUAGUGCUAAGGGGGCCUGGAGGUUUGGACUGGGCAGAGCUCAACACAGCGUGGCAAAGUGGCUGUGGCUAGACUGCCUCUCUGGGUUCCUCGUCACUCAGCAGGGCAUCUCUGAGAGAAAUGCC | 0.84
12 | UACGUAGGUGGUUCUCCCCUGAUAGUGCUAAGGGGGCCUGGAGGUUUGGACUGGGCAGAGCUCAACACAGCGUGGCAAAGUGGCUGUGGCUAGACUGCCUCUCUGGAUUCCUCGUCACUCGGCAGGGCAUCUCUGAGAGAAAUGCU | 1.6
13 | UACGUAGGUGGUUCUCCCCUGAUAGUGCUAAGGGGGCCUGGAAGUUUGGACUGGGCAGAGCUCGACACAGCGUGGCAAAGUGGCUGUAGCUAGACUGCCUCUCUGGAUUCCUCGUCACUCAGCAGGGCAUCUCUGAGUGAAAUGCC | 0.08
14 | UACGUAGGUGGUUCUCCCCUGAUAGUGCUAAGGGGGCCUGGAAGUUUGGACUGGGCAGAGCUCGACACAGCGUGGCAAAGUGGCAGUGGCUAGACUGCCUCUCUGGAUUCCUCGUCACUCAGCAGGGCAUCUCUGAGAGAAAUGCC | 0.05
15 | UACGUAGGUGGUUCUCCCCUGAUAGUGCUAAGGGGGCCUGGAAGUUUGGACUGGGCGGAGCUCAACACUGCGUGGCAAAGUGGCUGUGGCUAGACUGCCUCUCUGGAUUCCUCGUCACUCAGCAGGGCAUCUCUGAGAGUAAUGCC | 0.13
16 | UACGUAGGUGGUUCUCCCCUGAUAGUGCUAAGGGGGCCUGGAAGUUUGGACUGGGCUGAGCUCAACACAGCGUGGCAAAGAGGCUGUGGCUAGACUGCCUCUCUGGAUUCCUCGUCACUCAGCAGGGUAUCUCUGAGAGAAAUGCC | 0.1
17 | UACGUAGGUGGUUCUCCCCUGAUAGUGCUAAGGGGGCCUGGAAGUUUGGACUGGGCUGAGCUCAACACAGCGUGGCAAAGUGGCCGUGGCUAGACUGCCUCUCUGGAUUCCUCGUCACUCAGCAUGGCAUCUCUGAGAGAAAUGCC | 0.12
18 | UACGUAGGUGGUUCUCCCCUGAUAGUGCUAAGGGGGCCUGGAAGUUUGGACUGGGCAGAGCUCGACACAGCGUGGUAAAAUGGCUGUGGCUAGACUGCCUCUCUGGAUUCCUCGUCACUCAGCAGGGCAUCUCUGAGAGAAAUGCC | 0.42
19 | UACGUAGGUGGUUCUCCCCUGAUAGUGCUAAGGGGGCCUGGAAGUUUGGACUGGGCAGGGCUCAACACAGCGUGGCAAAGUGGCUGUGGCUAGACUGCCUCUCUGGAUUCCUCGUCACUCAGCAGGGCAUGUCUGAGAGAAAUGCC | 0.36
20 | UACGUAGGUGGUUCUCCCCUGAUAGUGCUAAGGGGGCCUGGAAGUUUGGUCUGGGCAGAGCUCAACACAGCGUGGCAAAGUGGCUGUGGCUAGACUGCCUCUCUGGAUUCCUCGUCACUCAGCAGGGCAUCUCAGAGAGAAAUGCC | 0.66

Row | Variant | self-cleavage
21 | UACGUAGGUGGUUCUCCCCUGAUAGUGCUAAGGGGGCCUGGAGGUUUGGACUGGGCAGAGCUCAACACAGCGUGGCAAAGUGGCUGUGGCUAGACUGCUUCUCUGGAUUCCUCGUCACUCAGCAGGGCAUCUCUGAGGGAAAUGCC | 0.87
22 | UACGUAGGUGGUUCUCCCCUGAUAGUGCUAAGGGGGCCUGGAAGUUUGGACUGGGCAGGGCUCAACGCAGCGUGGCAAAGUGGCUGUGGCUAGACUGCCUCUCUGGAUUCCUCGUCACUCAGCAGGGCAUCCCUGAGAGAAAUGCC | 0
23 | UACGUAGGUGGUUCUCCCCUGAUAGUGCUAAGGGGGCCUGGAGGUUUGGACUGGGCAGAGCUCAACACAGCGUGGCAAAGUGGCUGUGGCUAGACUGCCUCUCUGGAUACCUAGCCACUCAGCAGGGCAUCUCUGAGAGAAAUGCC | 1.03
24 | UACGUAGGUGGUUCUCCCCUGAUAGUGCUAAGGGGGCCUGGAAGUUUGGACUGGGCCGAGCUCAACACAGCGUGGUAAAGUGGCUGUGGCUAGACUGCCUCUCUGGAUUCCUCGUCACUCAGCAGGGCAUCUCUGAGAGAAAAGCC | 0.06
25 | UACGUAGGUGGUUCUCCCCUGAUAGUGCUAAGGGGGCCUGGAAGUUUGGGCUGGGCAGAGCUCAACACAGCGUGGCAAAGUGGCUGUGGCUAGUCUGCCUCUCUGGAUUCCUCGUCACCCAGCAGGGCAUCUCUGAGAGGAAUGCC | 1.2
26 | UACGUAGGUGGUUCUCCCCUGAUAGUGCUAAGGGGGCCUGGAAGUUUGGACUGGGCUGAGCUCAACACAGCGUGGCAAAGUGGCUGUGGCUAGACUGCCUCUCUGGAUUCCUCGUCACCCAGCAGGGGAUCUCUGAGAGAAAUGCC | 0
27 | UACGUAGGUGGUUCUCCCCUGAUAGUGCUAAGGGGGCCUGGAAGUUUGGUCUGGGCAGAGCUCAACACAGCGUGGCAAAGUGGCUGUGGCUAGACUGCCUCUCUGGAUUCCUCGUCACUCAGCAGGGCAUCUCUGAGAGAAGUGCC | 0.66
28 | UACGUAGGUGGUUCUCCCCUGAUAGUGCUAAGGGGGCCUGGAAGUUUGGACUGGGCAGAGCUCGACACAGCGAGGCAAAGUGGCUGUGGCUAGACUGCCUCUCUGGAUUCCUCGUCACUCAGCAGGGCAUCUCUGAGAGAAAUGCC | 0.49
29 | UACGUAGGUGGUUCUCCCCUGAUAGUGCUAAGGGGGCCUGGAAGUUUGGCCUGGGCAGAGCUCAACACAGCGUGGCAAAGAGGCUGUGGCUAGACUGCCUCUCUGGAUUCCUCGUCACUCAGCAGGGCAUCUCUGAGAGAAAUGCC | 1.99
30 | UACGUAGGUGGUUCUCCCCUGAUAGUGCUAAGGGGGCCUGGAAGUUUGGACUGGGCAGGGCUCAACACAGCGUGGCAAAGUGGCUGUGGCUAGACUGCCUCUCUGGAUUCCUCGUCACUCAGCAGGGCAUCACUGAGAGAAAUGCC | 0.25
31 | UACGUAGGUGGUUCUCCCCUGAUAGUGCUAAGGGGGCCUGGAAGUUUGGACUGGGCUGAGCUCAACACAGCGUGGCAAAGUGGCUGUGGCUAAGCUGCCUCUCUGGAUUCCUCGUCACUCAGCAGGGCAUCUCUGAGAGAAAUGCC | 0.09
32 | UACGUAGGUGGUUCUCCCCUGAUAGUGCUAAGGGGGCCUGGAAGUUUGGACUGGGCAGAGCUCGACACAGCGUGGCAAAGUGGCUGUGGCUAGGCUGCCUCUCUGGAUUCCUCGUCACUCAGCAGGGCAUCUCUGAGAGAAAUGCC | 0
33 | UACGUAGGUGGUUCUCCCCUGAUAGUGCUAAGGGGGCCUGGAAGUUUGGGCUGGGCAGAGCUCAACACGGCGUGGCAAAGUGGCUGUGGCUAGACUGCCUCUCUGGAUUCCUCGUCACUCAGCAUGGCAUCUCUGAGAGAAAUGCC | 0.27
34 | UACGUAGGUGGUUCUCCCCUGAUAGUGCUAAGGGGGCCUGGAAGUUUGGACUGGGCAGUGCUCAUCACAGCGUAGCAAAGGGGCUGUGGCUAGACUGCCUCUCUGGAUUCCUCGUCACUCAGCAGGGCAUCUCUGAGAGAAAUGCC | 0.08
35 | UACGUAGGUGGUUCUCCCCUGAUAGUGCUAAGGGGGCCUGGAAGUUUGGACUGGGCUGAGCUCAACACAGCGGGGCAAAGUGGCUGUGGCUAGACUGCCUCUCUGGAUUCCUCGUCACUCAGCAGGGCAUCUCUGAGAGAAAUGCC | 0.22
36 | UACGUAGGUGGUUCUCCCCUGAUAGUGCUAAGGGGGCCUGGAAGUUUGGACUGGGCAGGGCUCGACACAGCGUGGCUAAGUGGCUGUGGCUAGACUGCCUCUCUGGAAUCCUCGUCACUCAGCAGGGCAUCUCUGGGAGAAAUGCC | 0
37 | UACGUAGGUGGUUCUCCCCUGAUAGUGCUAAGGGGGCCUGGAAGUUUGGACUGGGCAGAGCUCCACACAGCGUGGCAAAGUGGCUGCGGCUAGACUGCCUCUCUGGAUUCCUCGUCACUCAGCAGGGCAUCUCUGAGAGAAGAGCC | 0
38 | UACGUAGGUGGUUCUCCCCUGAUAGUGCUAAGGGGGCCUGGAAGUUUGGACUGGGCAGGGCUCGACACAGCGUGGCAAAGUGGCUGUGGCUAGACUGCCUCUCUGGAUUCCUCGUCACUCAGCUGGGCAUCUCUGAGAGAAAUGCC | 0.07
39 | UACGUAGGUGGUUCUCCCCUGAUAGUGCUAAGGGGGCCUGGAAGUUUGGACUGGGCUGAGCUCAACACAGCGUGGCAAAGUGGCUGUGGCUAGACUGCCUCUCUGGAUUCCACGUCACUCAGCAGGGCAUCUCUGAGAGAAAUGCC | 0.22

Reference: the RNAGym collection of RNA variant scans (doi:10.7554/elife.90254)
